Assay results from the RNAGym collection of RNA variant scans (doi:10.1093/nar/gkz1192).
Read counts are not given, so values of variants with three or more changes are uncertain.

B1: CPEB3 Ribozyme (parent)
chain: UAACAGGGGGCCACAGCAGAAGCGUUCACGUCGCAGCCCCUGUCAGAUUCUGGUGAAUCUGCGAAUUCUGCUGUAUAUCUC

Variants of: B1
Assay: self-cleavage, relative activity (ratio to wild type); higher = more cleavage; in vitro, sequencing
Summary of the method: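 For each CPEB3 ribozyme variant, relative activity is its cleaved/total read fraction divided by the unmutated ribozyme's. Barcoded error-prone PCR libraries were transcribed by T7 RNA polymerase (5 hours, 37°C) and held in DNase I for 15 min before an EDTA stop, with cleavage occurring throughout. Template-switching reverse transcription and Illumina sequencing were used to read the RNAs. A 5-read minimum applied, and results are the mean of three batches.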
U1G A28G U48C gave a self-cleavage of 0.26.
U1G A28U U51G U76C U80C showed a self-cleavage of 0.91.
For U1G A45C U48C U49C U72C C81A, the self-cleavage was 0.61.
U1G A45G U54C A57G A65U U72C gave a self-cleavage of 0.13.
With U1G A45G U72C the self-cleavage was 0.59.
U1G A47G U60A gave a self-cleavage of 0.35.
U1G A64U U78C gave a self-cleavage of 0.32.
Variant U1G C11U U25C A45U has a self-cleavage of 0.07.
U1G C12A A15G A21G U43A G63U U80C gave a self-cleavage of 0.99.
In the case of U1G C12A A20G U48G G63A, the self-cleavage is reported as 0.21.
Work on U1G C17G A20C G36A U69A yielded a self-cleavage of 0.
For U1G C27G U60A, the self-cleavage was 0.27.
In the case of U1G G6A A13G C17U U80A, the self-cleavage is reported as 0.07.
Work on U1G G8A A15G G19C U66C yielded a self-cleavage of 0.05.
Work on U1G G9U A13C A35G yielded a self-cleavage of 0.48.
U1G G9U A21G showed a self-cleavage of 0.31.
U1G G10A U25C U26C U31C U43C A57G gave a self-cleavage of 0.06.
Variant U1G G10U U26C U78C has a self-cleavage of 0.07.
In the case of U1G G30A U31A, the self-cleavage is reported as 0.07.
U1G U25A C40U A65G gave a self-cleavage of 0.07.
Work on U1G U25C A35G U49C yielded a self-cleavage of 0.12.
Variant U1G U25C C40A U69G U72C A75G has a self-cleavage of 0.06.
U1G U25C C40U A75G gave a self-cleavage of 0.2.
Work on U1G U25C U26C yielded a self-cleavage of 0.39.
For U1G U26A A64U A65G, the self-cleavage was 0.12.
With U1G U26A C44G U60C U80C the self-cleavage was 0.46.
U1G U41A G53A U60C gave a self-cleavage of 0.18.
In the case of U1G U49A A56G, the self-cleavage is reported as 0.46.
Variant U1G U60C U69C has a self-cleavage of 0.16.
For U1G U66C U72A, the self-cleavage was 0.18.
U1G U69C U78A showed a self-cleavage of 0.33.
For U1G U72A U76A U78C, the self-cleavage was 0.52.
For A2C A3G A18G U25C A45U U66A A75U, the self-cleavage was 0.
A2C A3G A20G G24A A47G C62U gave a self-cleavage of 0.09.
Work on A2C A3U C23G U31C U43C A56U U58C yielded a self-cleavage of 0.09.
A2C A5G C27U gave a self-cleavage of 0.13.
Variant A2C A5U A15G G22A A35U C50A U60C has a self-cleavage of 0.05.
A2C A5U A65G U72A U76C U80A gave a self-cleavage of 0.41.
In the case of A2C A5U G33U A47G, the self-cleavage is reported as 0.13.
A2C A13G A65G gave a self-cleavage of 0.2.
Work on A2C A13U A57G U78A yielded a self-cleavage of 0.89.
A2C A15G C23G G63A showed a self-cleavage of 0.1.
In the case of A2C A15G U25C U60C, the self-cleavage is reported as 0.45.
A2C A15G U51A gave a self-cleavage of 0.79.
Variant A2C A15U A18G U78C has a self-cleavage of 0.11.
A2C A15U A47G A56G gave a self-cleavage of 0.37.
Work on A2C A15U U41C G52A A65G A77C yielded a self-cleavage of 0.2.
A2C A20C C27G U31C showed a self-cleavage of 0.45.
With A2C A20G A28G G36U U58A the self-cleavage was 0.39.
In the case of A2C A20G A28G U58C, the self-cleavage is reported as 0.09.
With A2C A21G A28G A35U A45G A56G G73A the self-cleavage was 0.47.
A2C A21G G22U U58C C71U gave a self-cleavage of 0.11.
A2C A28G A35G U51A C59U U60C U66C showed a self-cleavage of 0.18.
With A2C A28G U41A U48G the self-cleavage was 0.32.
A2C A28G U48G U67A A77U gave a self-cleavage of 0.06.
For A2C A28U U54A U72C, the self-cleavage was 0.6.
A2C A35G C44U U66C U78G showed a self-cleavage of 0.25.
Variant A2C A35U A45G U54C has a self-cleavage of 0.26.
With A2C A47G A77C the self-cleavage was 0.96.
With A2C A47G U72A U78A the self-cleavage was 0.28.
A2C C11A U26A U51C U80C showed a self-cleavage of 0.29.
A2C C11U A28C U41C A45G U78A U80C showed a self-cleavage of 0.04.
With A2C C11U U76C the self-cleavage was 0.34.
Variant A2C C12A U26C has a self-cleavage of 0.55.
For A2C C12U A15U A21G A45G U80C, the self-cleavage was 0.34.
Work on A2C C17U C37U U43C A47G C62U A65G yielded a self-cleavage of 0.07.
With A2C C23A A64U U67A the self-cleavage was 0.19.
In the case of A2C C23U A35U U41A U60C, the self-cleavage is reported as 0.14.
With A2C C27G A35G C37U U49C A65G the self-cleavage was 0.05.
A2C C32A C38G gave a self-cleavage of 0.06.
With A2C C44U U58A U60C the self-cleavage was 0.04.
In the case of A2C G7U A64U, the self-cleavage is reported as 0.07.
Variant A2C G8A U43C G63A U72C G73A A75G has a self-cleavage of 0.04.
Variant A2C G19U C32G C34U A56G A77U has a self-cleavage of 0.11.
Variant A2C G24A U41C U43C G52A has a self-cleavage of 0.23.
For A2C G46A A47G A65G U69C U76C, the self-cleavage was 0.06.
In the case of A2C U25A U78C, the self-cleavage is reported as 0.54.
A2C U25C A28U C62U gave a self-cleavage of 0.2.
Work on A2C U25C C59U A65C yielded a self-cleavage of 0.27.
For A2C U25G U26C A45U, the self-cleavage was 0.52.
A2C U26A A28U U54C C68G gave a self-cleavage of 0.04.
For A2C U26A U49C U51A, the self-cleavage was 0.2.
A2C U26C A57G showed a self-cleavage of 0.38.
With A2C U31A A35U U41C G53A A75G the self-cleavage was 0.14.
Variant A2C U41A U49A has a self-cleavage of 0.37.
Work on A2C U43A U49A yielded a self-cleavage of 0.89.
Work on A2C U51A U66C yielded a self-cleavage of 0.54.
A2C U54C A64G U67C C79A U80C gave a self-cleavage of 0.11.
A2C U66C U67C U69C U74C showed a self-cleavage of 0.45.
A2C U67A U74C showed a self-cleavage of 0.94.
A2C U74C U78C showed a self-cleavage of 1.04.
Work on A2G A3C A77G yielded a self-cleavage of 1.12.
A2G A3C U31C G33A A47U gave a self-cleavage of 0.12.
In the case of A2G A3G A5G A21G G53A A65G, the self-cleavage is reported as 0.08.
With A2G A3G A5G A45U U58C U78C the self-cleavage was 0.26.
In the case of A2G A3G A13U U25A C39A U72C, the self-cleavage is reported as 0.09.
In the case of A2G A3G A15C A56G U58C U78C, the self-cleavage is reported as 0.38.
A2G A3G A15G U31A U51A U74G showed a self-cleavage of 1.07.
In the case of A2G A3G A45C U80C, the self-cleavage is reported as 0.25.
Variant A2G A3G A57U A77U has a self-cleavage of 0.39.
For A2G A3G C11G A18G A21G C38G A56G, the self-cleavage was 0.5.
Variant A2G A3G C11U A13G C29G G33A has a self-cleavage of 0.45.
Work on A2G A3G C27U U69A U74A yielded a self-cleavage of 0.14.
A2G A3G G10A A15G A35U U54C U72G showed a self-cleavage of 0.09.
Variant A2G A3G G10C U69C has a self-cleavage of 0.22.
For A2G A3G G30A A64G, the self-cleavage was 0.13.
A2G A3G G52C U58C U78C showed a self-cleavage of 0.24.
Work on A2G A3G G53A U60C A65G A77G yielded a self-cleavage of 0.2.
A2G A3G U25C C40G U41A gave a self-cleavage of 0.76.
A2G A3G U25C G53C U67C U69A showed a self-cleavage of 0.06.
With A2G A3G U26C A35U A64U U67C the self-cleavage was 0.11.
Variant A2G A3G U26C C62G U80A has a self-cleavage of 0.38.
For A2G A3G U43A U49A, the self-cleavage was 0.96.
For A2G A3G U54A, the self-cleavage was 0.81.
With A2G A3G U72C the self-cleavage was 1.04.
With A2G A3U A5U A28U U51A A64U the self-cleavage was 0.39.
In the case of A2G A3U A13G A20U U54C U78C, the self-cleavage is reported as 0.34.
A2G A3U A15G A64U U66C U69A U72G gave a self-cleavage of 0.2.
For A2G A3U A18U, the self-cleavage was 0.77.
For A2G A3U A20G C32U C39G A56U, the self-cleavage was 0.06.
A2G A3U A21G C23U C38G G42A U54A gave a self-cleavage of 0.05.
With A2G A3U A45U A56G U80C the self-cleavage was 0.45.
Variant A2G A3U G7A A28G A35G A64G has a self-cleavage of 0.08.
Variant A2G A3U G7A C11U C38A U60A has a self-cleavage of 0.04.
In the case of A2G A3U G7A C38A A45U, the self-cleavage is reported as 0.34.
With A2G A3U G7C A20U U60C U76C U78C the self-cleavage was 0.05.
Variant A2G A3U G9A U31A has a self-cleavage of 0.49.
A2G A5C G7A U26C U49C gave a self-cleavage of 0.09.
Variant A2G A5G A13C A18G has a self-cleavage of 0.
Variant A2G A5G A13C A57G has a self-cleavage of 0.3.
With A2G A5G A13G A15G A18G U74A the self-cleavage was 0.7.
For A2G A5G A13U A15U U66C U76C, the self-cleavage was 0.3.
Variant A2G A5G A13U A18U U54C U60C C62U has a self-cleavage of 0.1.
In the case of A2G A5G A15G, the self-cleavage is reported as 0.45.
For A2G A5G A18G G19C A28U G52A, the self-cleavage was 0.09.
A2G A5G A18G U60A gave a self-cleavage of 0.47.
With A2G A5G A18G U60C U67C G70A the self-cleavage was 0.11.
A2G A5G A18G U66C U74C showed a self-cleavage of 0.61.
For A2G A5G A28G G52A U80A, the self-cleavage was 0.56.
For A2G A5G A28G U67C, the self-cleavage was 0.1.
Work on A2G A5G A45G yielded a self-cleavage of 0.57.
In the case of A2G A5G A56G, the self-cleavage is reported as 0.13.
In the case of A2G A5G A57G, the self-cleavage is reported as 0.47.
In the case of A2G A5G C11G A35U, the self-cleavage is reported as 0.17.
A2G A5G C11U U66C U80A showed a self-cleavage of 0.39.
For A2G A5G C12U A21U U66C, the self-cleavage was 0.1.
A2G A5G C14U U26C U49C A77G showed a self-cleavage of 0.08.
In the case of A2G A5G C17G U58C A77G, the self-cleavage is reported as 0.11.
Variant A2G A5G C17U U43C has a self-cleavage of 0.26.
Variant A2G A5G C29A G52A U54C U60C has a self-cleavage of 0.11.
For A2G A5G C39A A56G, the self-cleavage was 0.15.
Work on A2G A5G C44A U67C yielded a self-cleavage of 0.16.
In the case of A2G A5G G7A G19U C27A U69C G70C, the self-cleavage is reported as 0.26.
In the case of A2G A5G G16A C38A, the self-cleavage is reported as 0.12.
For A2G A5G G16A U41A U66C U80C, the self-cleavage was 0.24.
Variant A2G A5G G16A U41A U80C has a self-cleavage of 0.48.
A2G A5G G33A A64U A65G U74C showed a self-cleavage of 0.11.
In the case of A2G A5G G52U U54A, the self-cleavage is reported as 0.83.
With A2G A5G U26C U69A the self-cleavage was 0.5.
A2G A5G U31C gave a self-cleavage of 0.65.
A2G A5G U31C U74C showed a self-cleavage of 0.92.
With A2G A5G U49A A56G U69A the self-cleavage was 0.07.
With A2G A5G U51C the self-cleavage was 0.19.
A2G A5G U60A U69C A77G U78C showed a self-cleavage of 0.29.
A2G A5G U66A U76C showed a self-cleavage of 0.52.
A2G A5G U67C showed a self-cleavage of 0.19.
A2G A5U A13U G24C G73A showed a self-cleavage of 0.49.
